Experimental data reported in the supplement of paper PMC4166925.
± gives the standard deviation of the averaged measurements. Whole data set: some 33,000 sequences, median “E-score (dimensionless, -0.5 to 0.5)” near -0.046, cut for the highest 2% near 0.36. The list shows a part of the results.

test system: T1, SpTbr T-box DNA-binding domain (GST fusion); experiment: PBM E-score of 8-mer (E-score (dimensionless, -0.5 to 0.5)); Tbr is Tbrain of the sea star Patiria miniata (Pm) or the sea urchin Strongylocentrotus purpuratus (Sp); higher = stronger binding preference; most listed sequences are background and not binding sites; conditions: the construct has about 5 more residues each side
T1 sequence: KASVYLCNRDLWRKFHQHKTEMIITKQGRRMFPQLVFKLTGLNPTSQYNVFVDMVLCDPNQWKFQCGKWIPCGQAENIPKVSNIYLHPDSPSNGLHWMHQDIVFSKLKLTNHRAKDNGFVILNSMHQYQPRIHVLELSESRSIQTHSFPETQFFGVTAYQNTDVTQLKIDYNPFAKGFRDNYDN
Protocol: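 Universal protein-binding microarray (Agilent AMADID 016060, 60-bp probes with a 35-bp variable region) incubated with 200 nM GST-fused Strongylocentrotus purpuratus Tbr T-box DNA-binding domain (residues 362-554) in PBS pH 7.5. Scored for every ungapped 8-mer (given with its reverse complement) as E-score (range -0.5 to 0.5; >0.45 counts as bound) and Z-score of median probe intensity. Two replicate arrays (datasets 1 and 2).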
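Also: protein at 200 nM in PBS on universal double-stranded arrays.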

Row | Sequence | PBM E-score of 8-mer
1 | TCATCCAA | 0.0902 ± 0.048
2 | AATGAACT | -0.234 ± 0.022
3 | CTGTTAGC | 0.207 ± 0.02
4 | GCGGGAGA | 0.00441 ± 0.0052
5 | ACTAAATC | -0.139 ± 0.0051
6 | CAGTATAG | -0.042 ± 0.02
7 | AAAGATGA | -0.148 ± 0.012
8 | CACACGGC | 0.151 ± 0.069
9 | CAATCACC | 0.0938 ± 0.039
10 | AAGATGAC | 0.15 ± 0.03
11 | AGATTGAG | -0.0733 ± 0.0032
12 | GGAAGTGA | 0.29 ± 0.0042
13 | CGCGCGCC | 0.173 ± 0.064
14 | CAAAACGC | -0.109 ± 0.0029
15 | ATAAGTAC | -0.246 ± 0.026
16 | ACAGAGGC | 0.0708 ± 0.05
17 | CCAAGGCG | 0.197 ± 0.036
18 | ATTAAGGG | -0.186 ± 0.0053
19 | GACACCGC | 0.244 ± 0.061
20 | CCGCAGAC | -0.143 ± 0.042
21 | CGTTTTTC | -0.018 ± 0.028
22 | TGAGTGCA | -0.219 ± 0.07
23 | AAGAAGGA | 0.0222 ± 0.048
24 | GAGTCAAC | 0.0904 ± 0.024
25 | AAGGATAT | -0.236 ± 0.025

Row | Sequence | PBM E-score of 8-mer
26 | AATTAGGA | -0.00968 ± 0.088
27 | AATTTTTA | -0.111 ± 0.084
28 | AACACCCG | 0.404 ± 0.01
29 | ACACCGCA | 0.175 ± 0.021
30 | CCCGCAAG | -0.104 ± 0.055
31 | ACACGTAC | 0.331 ± 0.0064
32 | CAACGGTC | 0.11 ± 0.036
33 | AGAGGCGA | 0.125 ± 0.098
34 | AGAGGCAA | -0.0855 ± 0.046
35 | GAGCAATC | -0.198 ± 0.095
36 | GGAGGCCA | -0.297 ± 0.036
37 | ACCTTCTA | 0.0656 ± 0.0091
38 | GCCCCATA | -0.112 ± 0.064
39 | GCTAGGAA | -0.0544 ± 0.06
40 | CCTACGCG | 0.175 ± 0.0086
41 | AGTGCTCG | -0.00167 ± 0.023
42 | CCAACAGA | 0.00743 ± 0.094
43 | CACCTACC | 0.394 ± 0.01
44 | CAGAAAAA | -0.204 ± 0.0081
45 | CGGGTTTA | -0.109 ± 0.055
46 | AGCGGGGA | -0.0886 ± 0.064
47 | ACACCGCT | 0.187 ± 0.033
48 | CATTCTAG | -0.179 ± 0.09
49 | ATCTCGAG | -0.0365 ± 0.083
50 | GGGCTAAA | -0.183 ± 0.046

Row | Sequence | PBM E-score of 8-mer
51 | CTCGTGAC | 0.195 ± 0.027
52 | ACGACCAA | -0.174 ± 0.0045
53 | GGACCTAC | -0.168 ± 0.0051
54 | CACAGAGG | 0.0136 ± 0.014
55 | ACACTTCG | 0.409 ± 0.0085
56 | CCTGGCCG | -0.106 ± 0.028
57 | AAATTTCT | -0.224 ± 0.1
58 | CCTATGCA | -0.195 ± 0.048
59 | GCTTGGAA | -0.304 ± 0.047
60 | AGGTAATG | -0.19 ± 0.11
61 | AATTTAAA | -0.142 ± 0.0048
62 | CCACACGC | 0.264 ± 0.039
63 | GACCACGC | 0.102 ± 0.094
64 | TCTCGCCA | 0.238 ± 0.035
65 | CGTGCTAC | 0.128 ± 0.0037
66 | ACCTGGTC | -0.0159 ± 0.014
67 | CAAGTAAA | -0.0256 ± 0.017
68 | CGTTGTTC | -0.116 ± 0.067
69 | CTGGTAGA | -0.113 ± 0.059
70 | CGGGGTAA | -0.0503 ± 0.11
71 | CCATCCAA | -0.236 ± 0.026
72 | CATTCGGA | -0.368 ± 0.051
73 | ACAATTTC | -0.049 ± 0.014
74 | ATCTGCCG | -0.21 ± 0.071
75 | GCTTCCGA | -0.23 ± 0.022

Row | Sequence | PBM E-score of 8-mer
76 | CTCTGTAA | 0.0333 ± 0.012
77 | ATATGGTG | 0.167 ± 0.012
78 | GACCAGTA | -0.334 ± 0.0039
79 | CCAACTTC | -0.0265 ± 0.019
80 | ACCCCCAG | -0.141 ± 0.027
81 | GTGAATTA | 0.2537 ± 0.00099
82 | CTTAGAGC | -0.154 ± 0.046
83 | AGCTTCCA | -0.199 ± 0.044
84 | ACAGAGGT | 0.109 ± 0.051
85 | CGTTGAAC | -0.0986 ± 0.0057
86 | GGGTGGTA | 0.11 ± 0.029
87 | AGCGATAA | 0.11 ± 0.049
88 | ACAGGCCT | -0.2194 ± 0.0011
89 | CGTAACAC | 0.3104 ± 0.0022
90 | AAGTAGGG | -0.249 ± 0.0035
91 | CAACCTAC | 0.0733 ± 0.011
92 | AACTTTTC | 0.0515 ± 0.043
93 | AGGGCCGG | -0.202 ± 0.022
94 | AACTGGGC | -0.112 ± 0.0045
95 | AACATCCC | -0.0172 ± 0.0071
96 | GGGACGCA | -0.0288 ± 0.0073
97 | CAGTATTA | -0.128 ± 0.043
98 | ACGAGAAT | 0.0428 ± 0.0091
99 | AATTGACC | -0.257 ± 0.062
100 | CGCACTAG | 0.127 ± 0.038

Row | Sequence | PBM E-score of 8-mer
101 | CTATCCCC | -0.125 ± 0.02
102 | CGCTCTAG | 0.151 ± 0.055
103 | CAGGACGA | -0.18 ± 0.01
104 | AGGTTCCC | -0.21 ± 0.036
105 | AAACTGCA | -0.132 ± 0.12
106 | ACCGGAAG | 0.0124 ± 0.045
107 | AGAGCTAT | -0.0799 ± 0.044
108 | CCTACTGC | -0.0828 ± 0.017
109 | CATCCCTA | -0.192 ± 0.0054
110 | GTCTACAC | 0.305 ± 0.024
111 | AACTAACA | 0.214 ± 0.0048
112 | AATATCCG | -0.204 ± 0.02
113 | GTCAGTAA | 0.139 ± 0.037
114 | AGTAACCA | -0.0145 ± 0.0049
115 | AACCACTC | -0.0818 ± 0.029
116 | CGAGCGAC | 0.137 ± 0.086
117 | AAGCATCT | -0.1465 ± 0.0013
118 | CCCTATCA | 0.0101 ± 0.042
119 | ACAATTGT | 0.189 ± 0.12
120 | ACCTATGA | -0.0199 ± 0.011
121 | GGGCTTAC | -0.179 ± 0.063
122 | AAGGTGTG | 0.4816 ± 0.0018
123 | CCCCTCAA | -0.0881 ± 0.025
124 | CTACGTCC | -0.0646 ± 0.097
125 | GTACCCCA | -0.151 ± 0.0011

Row | Sequence | PBM E-score of 8-mer
126 | ACAGGGCT | -0.316 ± 0.0043
127 | ACATTACC | -0.123 ± 0.062
128 | ACGTAGCC | -0.173 ± 0.05
129 | ATTTAAGA | -0.171 ± 0.0076
130 | ATTAGCCA | -0.143 ± 0.042
131 | GTCTATCA | -0.154 ± 0.035
132 | CCGGGGAC | -0.204 ± 0.11
133 | ACAGGAAA | -0.082 ± 0.075
134 | ACCTCGAA | 0.131 ± 0.021
135 | ACATGATA | -0.0776 ± 0.018
136 | GCTGTTCA | 0.065 ± 0.028
137 | ACAGAATA | -0.196 ± 0.035
138 | GAATACAC | -0.00509 ± 0.048
139 | GCAAGTGA | 0.274 ± 0.015
140 | TAGGACAA | -0.145 ± 0.091
141 | AGGTTACA | 0.0184 ± 0.028
142 | CCCGTGGC | 0.00164 ± 0.026
143 | GCCACCTA | 0.285 ± 0.036
144 | AATCCAAA | 0.036 ± 0.035
145 | CATGGGCA | -0.0485 ± 0.0061
146 | GTGCAGCA | -0.173 ± 0.0097
147 | AATTCACG | 0.345 ± 0.01
148 | CCAAGTGC | 0.32 ± 0.033
149 | GACCCGGA | -0.0041 ± 0.034
150 | GACATGGC | -0.266 ± 0.056

Row | Sequence | PBM E-score of 8-mer
151 | CATACCCG | 0.0224 ± 0.064
152 | GGAATCAA | -0.0726 ± 0.0034
153 | ACACGCCC | 0.16 ± 0.025
154 | GAGTACAA | -0.0957 ± 0.051
155 | ATAGTGAA | 0.0382 ± 0.012
156 | CGGACAAC | -0.0656 ± 0.02
157 | CCCGAGCA | -0.282 ± 0.017
158 | CGAACGGA | -0.0224 ± 0.087
159 | CACATGAC | 0.211 ± 0.02
160 | AATAATGT | -0.0989 ± 0.12
161 | AAAAGCTG | -0.0405 ± 0.066
162 | ACAAACAT | 0.0766 ± 0.034
163 | CCAGAGTC | -0.184 ± 0.012
164 | GTAACGCA | 0.162 ± 0.055
165 | ACACGGGT | 0.165 ± 0.015
166 | ATTCAGTA | -0.243 ± 0.018
167 | ATGTCTTA | -0.124 ± 0.012
168 | CCAGCTAA | -0.0736 ± 0.034
169 | GACCGGCA | 0.0692 ± 0.091
170 | GTGATGAA | 0.253 ± 0.013
171 | ACCTACAC | 0.13 ± 0.011
172 | TCCCAAGA | -0.0198 ± 0.058
